Source: PubChem BioAssay AID1508623 (National Center for Advancing Translational Sciences (NCATS), 2021)
The whole screen tested about 48,000 compounds, of which about 450 (0.94%) were called active. Not shown: some 19% with an inconclusive outcome. The call rests on the fitted dose curve; in most records, active means well fitted inhibition curve with a large enough effect; inconclusive means small, poorly fitted or top-dose-only effect; inactive means no such curve, though single readings can be large or run the other way. This is one part of the list.

Assay: Primary qHTS for Identification of Small Molecule Inhibitors of Huntingtin Promoter Activity; further: nearly all actives have a fitted effect of over 50% in size
Conditions: HEK293 HTT promoter firefly luciferase reporter (activity 0% = vehicle and -100% = no light), 24 h; series mostly up to 57.5 µM; activity change, negative = inhibition: at the top concentration
Outline: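 Firefly luciferase signal from promoter-reporter HEK293 cells was scaled between vehicle (0%) and zero RLU (-100%). Compounds were tested at final concentrations of up to 57.5 uM over 24 h at 37 degrees C. PTC124 at 50 uM final served as control inhibitor.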
Potency means the concentration at half of the fitted maximal effect.

Row | Structure (SMILES) | activity change, negative = inhibition | Potency
1 | CCCCNC(=O)c1ccc2c(c1)ncn2-c1cc(OC)ccc1OC | inactive: -15.2% | 
2 | Cc1c(Cl)cccc1-n1ncc(C(=O)Nc2ccc(Br)cc2F)c1C1CCNCC1 | inactive: -6.29% | 
3 | CCCNc1ccc(-c2nc(-c3ccccn3)no2)cc1[N+](=O)[O-] | inactive: 53.5% | 
4 | COC(=O)c1ccc(NC(=O)CCn2cnnn2)cc1 | inactive: -5.65% | 
5 | CCOc1ccccc1CNCc1cccn1-c1nnc(N2CCN(c3ccccc3)CC2)s1 |  | active: 25.1 µM
6 | CCN(CCCNC(=O)c1nn(-c2ccc(OC)cc2)c(=O)c2c1c1ccccc1n2C)c1ccccc1 | inactive: -7.28% | 
7 | CCc1cccc(NC(=O)CCNS(=O)(=O)c2cccc3nonc23)c1 | inactive: -15.6% | 
8 | COc1ccccc1NC(=O)C1=C(C)Nc2nnnn2C1c1ccc(C(F)(F)F)cc1 (stereo not drawn) | inactive: -17% | 
9 | CC(C)(C)CC(=O)NCC(c1ccc2c(c1)OCO2)N1CCN(c2ccccc2)CC1 (stereo not drawn) | inactive: -21.7% | 
10 | CCC(C)NC(=O)Cn1c(=O)n(CCCCCC(=O)NCc2ccccc2Cl)c(=O)c2sccc21 (stereo not drawn) | inactive: -18.2% | 
11 | CC(=O)c1ccc(NC(=O)c2cc(-c3ccc(C)s3)nc3ccccc23)cc1 | inactive: 1.62% | 
12 | CCOC(=O)N1CCc2c(sc3c2c(=O)n(CCc2ccccc2)c(=O)n3CC(=O)Nc2ccc(C)cc2)C1 | inactive: 3.24% | 
13 | CCOC(=O)c1ccc(NC(=O)CSc2ccc3ccccc3n2)cc1 | inactive: 3.34% | 
14 | COc1ccccc1C(=O)NCC(c1cccnc1)N1CCc2ccccc2C1 (stereo not drawn) | inactive: -23.3% | 
15 | Cc1cccc(N2CCN(C(=O)CN3C(=O)CSc4c3c(C)nn4-c3ccccc3)CC2)c1C | inactive: -8.97% | 
16 | CCc1ccc(NC(=O)[C@H](Cc2ccccc2)N2Cc3ccccc3C2=O)cc1 | inactive: -13.4% | 
17 | CCOc1ccc(S(=O)(=O)c2c(C(=O)c3ccc(CC)cc3)cnc3ccc(C)cc23)cc1 | inactive: -21.1% | 
18 | COc1cc(NC(=O)CCc2c(C)nn(-c3ccc4nnc(C)n4n3)c2C)cc(OC)c1OC | inactive: -1.44% | 
19 | CCOc1ccc(N2CC(NC(=O)c3cccs3)CC2=O)cc1 (stereo not drawn) | inactive: 3.09% | 
20 | CCCN(CCC)CCCNC(=O)c1cc2c(-c3ccc(OC)c(OC)c3)nn(C)c2s1 | inactive: -3.5% | 
21 | Cc1ccc(S(=O)(=O)n2nc(-c3ccccc3)nc2NCc2ccc(Cl)cc2)cc1 | inactive: -10.6% | 

Row | Structure (SMILES) | activity change, negative = inhibition | Potency
22 | O=C1CC(c2nc(-c3ccc(Cl)cc3)no2)CN1c1ccc2c(c1)OCCO2 (stereo not drawn) | inactive: -14.7% | 
23 | O=C(CSc1nc2c([nH]c3ccccc32)c(=O)n1-c1ccccc1)N1CCc2ccccc21 | inactive: -12.7% | 
24 | CSc1ccc(CCNC(=O)CCn2c(=O)c3cccn3c3ccc(F)cc32)cc1 | inactive: -4.96% | 
25 | C[C@]1(Cn2ccnn2)[C@H](C(=O)O)N2C(=O)C[C@H]2S1(=O)=O | inactive: 7.18% | 
26 | CCOC(=O)c1c(NC(=O)c2cc3ccccc3c(=O)o2)sc2c1CCC(C)C2 (stereo not drawn) | inactive: -2.33% | 
27 | Cc1ccc(SCC(=O)Nc2ccc3oc(-c4ccccc4C)nc3c2)cc1 | inactive: 61.8% | 
28 | COc1ccc(-n2c(=O)c3ccccc3n(CC(=O)Nc3ccccc3OC)c2=O)cc1 | inactive: -18.1% | 
29 | COc1cc(OC)cc(C(=O)Nc2cc3c(cc2N2CCCC2)n(C)c(=O)c(=O)n3C)c1 | inactive: -5.58% | 
30 | Cc1ccc2c(CC(=O)Nc3c(C(=O)c4ccc(C)c(F)c4)oc4ccccc34)coc2c1 | inactive: -16.9% | 
31 | CCOc1ccc(NC(=O)c2cnc3ccccn3c2=O)cc1 | inactive: 30.5% | 
32 | CC(CN(C)C)C(C)(O)Cc1ccc(Cl)cc1 (stereo not drawn) | inactive: 8.26% | 
33 | CCN(CC)CCCCNc1ncc2cc(-c3cc(OC)cc(OC)c3)c(NC(=O)NC(C)(C)C)nc2n1 | inactive: -23.1% | 
34 | COc1ccc(S(=O)(=O)c2c(O)c3ccc(C(=O)NCc4ccc(F)cc4)cc3[nH]c2=O)cc1 | inactive: -0.629% | 
35 | Cc1ccc(CNC(=O)c2cc(C)nc3c2c(C)nn3-c2ccc(C)cc2)cc1 | inactive: -10.5% | 
36 | CC[C@@H](CO)NCCN[C@@H](CC)CO | inactive: 11.9% | 
37 | O=C(Nc1ccc(Oc2ccccc2)cc1)C1CCN(S(=O)(=O)c2ccc(Cl)cc2)CC1 | inactive: -28.5% | 
38 | COc1ccccc1NC(=O)CCCc1nnc2n(C)c(=O)c3sccc3n12 | inactive: -8.22% | 
39 | CCOC(=O)c1cc(S(=O)(=O)NCc2ccc(C)cc2)[nH]n1 | inactive: 0% | 
40 | Cc1ccc2nc3sc(C(=O)NCCCN(C)c4ccccc4)cc3cc2c1 | inactive: 15.6% | 
41 | Fc1cccc(-n2ncc3c2ncn2nc(Cc4ccccc4)nc32)c1 | inactive: -10.5% | 
42 | COc1ccc(NC(=O)CSc2ccc3nc(-c4ccccc4)cn3n2)cc1OC | inactive: 10.9% | 

Row | Structure (SMILES) | activity change, negative = inhibition | Potency
43 | CC(C)NC(=O)c1nn(-c2ccccc2F)nc1CO | inactive: -21.2% | 
44 | CC(N=C(NC#N)Nc1ccncc1)C(C)(C)C (stereo not drawn) | inactive: 8.69% | 
45 | Cc1ccccc1Nc1c(-c2ccc(N3CCOCC3)cc2)nc2ccccn12 | inactive: 29.9% | 
46 | Cc1ccc(CNC(=O)CN2C(=O)COc3ccc(S(=O)(=O)Nc4ccccc4)cc32)cc1 | inactive: -14.9% | 
47 | CC(C)(C)OC(=O)N1CCC(c2nnc(SCc3cccc(Cl)c3)o2)CC1 | inactive: -36.4% | 
48 | Cc1cc(C)cc(NC(=O)CSc2nc(-c3ccccc3)c3cc(F)ccc3n2)c1 | inactive: -6.8% | 
49 | Cc1ccc2c(c1)-c1ncc(C(=O)c3ccccc3O)cc1CO2 | inactive: 12.3% | 
50 | Cc1ccc(C(=O)NC2=NC(c3ccc(C)cc3)CC(=O)N2)cc1 (stereo not drawn) | inactive: -14.3% | 
51 | CC(=O)OCC(=O)[C@@]1(OC(C)=O)[C@@H](C)C[C@H]2[C@@H]3C[C@H](F)C4=CC(=O)C=C[C@]4(C)[C@@]3(F)[C@@H](O)C[C@@]21C | inactive: -5.68% | 
52 | CC(=O)c1ccc(NC(=O)c2cc3sccc3n2Cc2ccc(F)cc2)cc1 | inactive: -11.7% | 
53 | Cc1cc(C)cc(NC(=O)c2cc(CN3CCCC3)on2)c1 | inactive: 65.7% | 
54 | CCCCCOC(=O)CSc1ncnc2sc3c(c12)CCC(C)C3 (stereo not drawn) | inactive: 9.82% | 
55 | CCC(Cc1ccccc1)NC(=O)CN1C(=O)COc2ccc(S(=O)(=O)N3CCCCCC3)cc21 (stereo not drawn) | inactive: -18.8% | 
56 | Cc1cc2c(cc1NC(=O)c1ccccc1C)n(C)c(=O)c(=O)n2C | inactive: 1.17% | 
57 | COc1ccc(CCNC(=O)CCCn2c(=O)c3cccn3c3ccccc32)cc1OC | inactive: 5.18% | 
58 | CCOCCCNC(=O)C1CCN(C(=O)c2cc3sccc3n2C)CC1 | inactive: -0.278% | 
59 | COc1ccc(NC(=O)CCCN2C(=O)C(c3ccccc3)Oc3cccnc32)c(OC)c1 (stereo not drawn) | inactive: -21.3% | 
60 | CCc1ccc(CNC(=O)CCCN2C(=O)CCn3nc(-c4cccn4C)cc32)cc1 | inactive: 0.561% | 
61 | CCc1ccc2oc(C(=O)Nc3cccc(Cl)c3C)cc(=O)c2c1 | inactive: -9.54% | 
62 | CC(C)CCN(Cc1ccco1)C(=O)c1cc2c(s1)-c1ccccc1OC2 | inactive: -34.1% | 
63 | COc1cc(-c2nnc(SCCOc3ccc(Cl)cc3)o2)cc(OC)c1OC | inactive: -13.7% | 
